Laboratory results reported in the domain aggregation screens of Martell et al. (2025).

assay: soluble fraction after stress (log2 fold change); higher = more stays soluble; pooled small domains, quantitative proteomics; conditions: stress: pH 4
In short: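 Aggregation propensity is estimated from the fold change in each domain's soluble amount after acid stress. Pooled small-domain libraries were stressed at pH 4, and higher log2 values mean more stayed soluble.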

First: HMDSLPEPIKRLLNVLGDKKLSAAEIMEQLGLSHRATFRKNYLNPALELGLIEMTIPDKPNSRNQKYIKKQ
Second: HMETLAWADTAQNGLDRLVAAQPILVRISAAKRLRDAAEQIARSAGVATVEIEHVQHASDSLQFGDA
The “soluble fraction (log2)” value of the first is higher: -0.342 for the first, -0.745 for the second.

Compared with “HMGPSEPVIVKWFNRLKGYGFVTRPDGEADIFVHMETVRRAGLAELMPGQTLHARITEGQKGPLVVALGE”, “HMKMVEGKVKWFNDSKGFGFIEQDGGKDVFVHHSAIQAEGFKSLAEGERVSFDVVAGPKGPAAANVRK” is higher in “soluble fraction (log2)” value: -1.18 for the first, no less than 0.43 for the second.

Going from “HMLSQEALEFVRSLVDRPMVIFTTAYSEYAVEGFKLDAVDYLLKPFSFADFSRSAGKANSLYELRHN” to “HMNNAVITINNLVKRFPVGGDFFTALKDIDLTLNKGEFTGLIGPSGSGKTTLLNIIGGLDSPTEGQVSV”, the “soluble fraction (log2)” value rises from -0.393 to 0.201.

First: HMQFGLDQVAHQRAHTLSGGMQRRLSIAMGLITNPKILFLDEPTVGLDVLARHELWHTLTALK
Second: HMSDMGRDEAYEILGLARDSSEAEIREAHKKLMINNHPDHGGSAYLATKINRARDVLLDELNFF
The “soluble fraction (log2)” value of the first is higher: 0.22 for the first, -1.44 for the second.

First: HMSDYYQDLGVERSATPEEIKRAYRRLARQLHPDVNPGAEAEEQFKTVSRAYEVLSDADKRRNYDLGVDP
Second: HMVSSEQHYTVLGITKQATDTEVKKAYRKMAVKYHPDKLQGVSEDIKKLSEEKFLKVKEAYEQIMKGR
The “soluble fraction (log2)” value of the first is higher: 0.149 for the first, -0.286 for the second.
